Screen size: about 320,000 compounds; about 9,100 (2.8%) were called active. Inconclusive means that the source gave no clear call. Such entries were picked first, then a sample of the others. Calls come from the whole dose curve; as a rule, active = well fitted activation curve with a large enough effect; inconclusive = small, poorly fitted or top-dose-only effect; inactive = no such curve, though single readings can be large or run the other way. Potencies of inconclusive entries are doubtful fits and often do not repeat.
Experiment: qHTS Assay for Rab9 Promoter Activators; note: nearly all actives have a fitted effect of over 60% in size
Conditions: Huh7 Rab9 promoter-luciferase reporter, luminescence, 24 h; series mostly up to 9.22 µM
Source text: NIH Chemical Genomics Center [NCGC] NIH Molecular Libraries Probe Production centers Network [MLPCN] MLPCN Grant: MH089537-01 Assay Submitter (PI): Yiannis A. Ioannou NCGC Assay Overview: Niemann Pick Type C (NPC) is a rare neurodegenerative lipidosis that is characterized by lipid storage in the endosomal/lysosomal system. Treatment modalities for this devastating disease are currently non-existent due to the severe obstacles associated with accessing the central nervous system with proteins or genes (Ioannou, 2000). We have developed a new paradigm, termed "Orphan Receptor Bypass Therapy" (ORByT), to address these disorders. This paradigm posits the existence of endogenous "suppressor" proteins whose expression can dramatically improve LSD pathogenesis. The goal is the identification/discovery of small chemical compounds that can modulate the expression of these proteins and provide a new treatment modality for these devastating disorders. One such protein whose overexpression reverses aspects of the NPC phenotype is Rab9. We have developed and optimized a cell based luciferase reporter assay in 1536 well format for the identification of up-regulators of the Rab9 promoter.
The Rab9 promoter is cloned in front of the luciferase reporter gene, therefore […] promoter activation results in luciferase expression. Frozen stock of the Rab9 promoter transfected Huh7 cells were obtained from the laboratory of Dr. Yiannis Ioannou (The Mount Sinai School of Medicine, New York, NY). Cells were propagated and maintained at NCGC in medium containing RPMI-1640 supplemented with 10% FBS, 2mM L-glutamine, and 50ug/ml penicillin/streptomycin. Cells were harvested in and plated for assays in OP-MEM I reduced-serum medium supplemented with 10% FBS. The Amplite luciferase reporter gene assay kit was purchased from ABD Bioquest and prepared/stored according to manufacturers recommendations. qHTS Assay Setup: 1.Dispensed 5ul of Huh7 cells stably expressing Rab9-luciferase at a density of 1500 cells per well 1536-well plates. 2.Incubate cells at 37C, 5% CO2, and 95% humidity for 2 hours. 3.Transferred 23nl per well of compound in DMSO solution. 4.Incubated at 37C, 5% CO2, and 95% humidity for 24 hours. 5.Dispensed 3ul per well of Amplite reagent(ABD Bioquest) per well. 6.Incubate at ambient for 10 minutes. 7.Read using the luminescence protocol on the ViewLux plate reader (Perkin Elmer).
Potency is the fitted concentration of half-maximal effect; tags give direction and shape of the fitted curve.

Potency, inconclusive:
COc1ccc(-c2cc(C(=O)Nc3cc(Cl)ccc3O)no2)cc1 2.82 µM [activator, partial curve]
CCC(Sc1nc(N)c(NC(=O)c2ccc(OC)cc2)c(=O)[nH]1)C(=O)O (stereo unspecified) 5.62 µM [activator, single point]
Cc1cccc(-c2noc(-c3ccno3)n2)c1 6.31 µM [activator, single point]
Nc1ccccc1-c1nc2ccccc2[nH]c1=O 3.55 µM [activator, single point]
COc1ccc2oc(=N)c(C(=O)Nc3ccc(F)cc3)cc2c1 2.82 µM [activator, partial curve]
O=C(Nc1ccc(Nc2ccccc2)cc1)c1ccc(Br)o1 2.51 µM [activator, partial curve]
COCC(C)n1c(C)cc(C(=O)CSc2nnnn2C2CCCC2)c1C (stereo unspecified) 2.82 µM [activator, partial curve]
COc1cc2c(C)nc3c(cnn3-c3ccccc3)c2cc1OC 3.16 µM [activator, single point]
Cn1cccc1C(=O)C(=O)Nc1cc(Cl)cc(Cl)c1 3.98 µM [activator, partial curve]
C(=N\Nc1nc(-c2ccccc2)cs1)/c1ccncc1 2.51 µM [activator, partial curve]
NC(=O)c1ccc(-c2ncc(-c3ccccc3)o2)cc1 0.282 µM [activator, full curve]
O=C(Nc1cccnc1)Nc1ccc2c(c1)OCO2 3.55 µM [activator, single point]
CCC(C)(C)NC(=O)/C=C/c1cnc2ccccc2n1 3.55 µM [activator, partial curve]
Cc1cccc(NC(=S)c2nc3ccccc3s2)c1 0.631 µM [activator, partial curve]
C/C(=N\NC(=O)c1ccco1)c1ccc(NC(=O)c2ccccc2)cc1 2 µM [activator, partial curve]
CC(=O)c1ccc(NC(=S)NC(=O)/C=C/c2ccccc2)cc1 3.55 µM [activator, single point]
CC(C)N1CC(O)=C(c2nc3ccccc3[nH]2)C1=N 3.98 µM [activator, partial curve]
CCOC(=O)c1ccc(NC(=O)Nc2ccn(C)n2)cc1 3.55 µM [activator, single point]
COc1ccc(-n2nc(C(=O)NCC(=O)N3CCCCC3)c3ccccc3c2=O)c(OC)c1 3.55 µM [activator, single point]
CCOC(=O)N1CCN(C(=O)COC(=O)c2ccccc2NCCO)CC1 3.55 µM [activator, partial curve]
Cc1cccc(N2C(=O)CC(N(O)c3ccccc3)C2=O)c1 (stereo unspecified) 3.16 µM [activator, partial curve]
COc1ccc(Nc2nc(-c3cccnc3)cs2)c(OC)c1 6.31 µM [activator, single point]
CCOc1ccc2nc(N3CCOCC3)nc(C)c2c1 5.62 µM [activator, single point]
COc1ccc(-n2ncc3c(NCCCn4ccnc4)ncnc32)cc1 5.62 µM [activator, single point]
CN(C)c1ccc(NC(=O)Nc2ccc3c(c2)nnn3C)cc1 6.31 µM [activator, single point]
COc1cc(NC(=O)C2CCCCC2)c(OC)cc1NC(=O)c1ccco1 1.12 µM [activator, single point]
C=CCNC(=O)COc1ccc(Oc2ccccc2)cc1 3.55 µM [activator, partial curve]
CCc1ccccc1Nc1nc(N)nc(COC(=O)c2cccn2C)n1 4.47 µM [activator, single point]
Cn1ccsc1=NC(=O)c1cccc(OC(F)F)c1 2.51 µM [activator, partial curve]
CCn1c(C)nc2cc(C(=O)N/N=C(\C)c3ccccc3O)ccc21 0.447 µM [activator, full curve, poor fit]
Cc1cc(C)nc(N/N=C/c2ccc3c(c2)OCCO3)n1 2.51 µM [activator, partial curve]
COc1ccc(OCc2cc(C(=O)NC(C)Cn3cncn3)no2)c(Cl)c1 (stereo unspecified) 3.98 µM [activator, partial curve]
CCn1nnnc1SCC(=O)c1ccc(C)cc1 6.31 µM [activator, single point]
O=[N+]([O-])c1ccc(-c2cn3c(n2)CCC3)cc1 3.16 µM [activator, partial curve]
Cc1[nH]c2ccccc2c1C(=O)/C=C/c1ccccc1 6.31 µM [activator, partial curve]
CCc1nnc(NC(=O)Nc2ccc(OC)cc2)s1 3.98 µM [activator, single point]
CCOc1ccc(C(=O)NC(Cc2ccccc2)C(=O)OC)cc1 (stereo unspecified) 3.16 µM [activator, single point]
CS(=O)(=O)N1CCN(c2ccc(NC(=O)c3cc4ccccc4o3)cc2)CC1 1.12 µM [activator, partial curve]
COCCSc1nnc(NC(=O)c2ccc3c(c2)OCO3)s1 3.98 µM [activator, single point]
CCOc1ccc(NC(=O)Nc2ccc(Br)cn2)cc1 3.16 µM [activator, partial curve]
CC1(C(=O)N2CCN(Cc3ccccc3Cl)CC2)CC1(Cl)Cl (stereo unspecified) 5.62 µM [activator, single point]

Potency, active:
CCOC(=O)c1c(N)sc(C(=O)Nc2ccccc2)c1C 0.316 µM
O=C(Nc1nnc(C2CC2)s1)c1cc2ccccc2o1 3.55 µM
O=C(OCc1ccc(Br)cc1)c1cccc(-c2nnc(-c3ccccc3)o2)c1 3.55 µM
Cc1ccc(-c2csc(N3CCC(C(N)=O)CC3)n2)cc1 2 µM
O=C(NCCOc1ccccc1F)c1ccc2c(=O)n3c(nc2c1)CCC3 2.24 µM
Cc1ccc(Nc2ncccc2C(N)=O)cc1 2.82 µM
COc1cccc(CNc2cnc3ccccc3c2)c1O 1.78 µM
Cc1cc(/C=N/NC(=O)c2ccccc2F)c(C)n1-c1ccccc1 0.631 µM
Cc1ccc(C(=O)OCC(=O)c2ccccc2)cc1 0.562 µM
N/C(=N\OC(=O)/C=C/c1ccccc1)c1ccncc1 1.78 µM
O=[N+]([O-])c1cccc(-c2noc(-c3ccco3)n2)c1 2.51 µM
COc1cc(/C=N/O)ccc1OCc1ccc([N+](=O)[O-])cc1 2 µM
Fc1ccc(-c2csc(Nc3ccccn3)n2)cc1 3.16 µM
O=C(Nc1ccc2c(c1)CCC2)c1cc(F)cc(F)c1 1.41 µM
COc1ccc(/C(N)=N/OC(=O)Cc2cccs2)cc1 3.16 µM
Cc1ccc(C(=O)/C=C\Nc2ccc(C)c(C)c2)cc1 1.58 µM

Potency, inactive:
CCCCc1c(C)nc(Nc2ccc(OC)cc2)[nH]c1=O
CC(=O)Nc1ccc2c(c1)nc(CCNC(=O)c1ccccc1)n2C
O=C(N/N=C/c1cccc(O)c1)c1ccc(COc2cccc3cccnc23)cc1
CCOc1ccc(NC(=O)Nc2ccc3c(c2)nc(C)n3C)cc1
O=C1C/C(=C\c2c(F)cccc2Cl)N2CCC1CC2
COc1cccc(-n2nc(-c3ccnn3-c3ccc(C)cc3)c(=O)n(C)c2=O)c1
Cc1cccc(C(=O)Nc2nnc(-c3cccnc3)o2)c1
O=C(COC(=O)c1ccc(NS(=O)(=O)c2cccs2)cc1)Nc1nc2c(F)c(F)c(F)cc2s1
COc1ccc(/C=N/Nc2cc(N(C)C)nc(N(C)C)n2)cc1
CS(=O)(=O)N1CCN(c2ccccc2NC(=O)c2ccco2)CC1
CCCCCCCC(=O)NN=C1CCN(Cc2ccccc2)CC1
CSc1ccc(S(=O)(=O)N2CCC(C(=O)NC3CC3)CC2)cc1
CN(C)C(=O)C(OC(=O)c1ccc2ccccc2n1)c1ccccc1 (stereo unspecified)
COc1cccc(NC(=O)CN(C)C(=O)c2cccnc2Sc2ccc(C)c(C)c2)c1
O=C(OCC#CCSc1nnc(-c2cccc3ccccc23)o1)c1ccco1
COCCCn1c(-c2ccc(Cl)cc2)n[nH]c1=S
COC(=O)c1ccccc1NC(=O)COC(=O)[C@H](C)NC(N)=O
CSc1ccc(CN(C)C(=O)CNC(=O)c2sc3ccccc3c2Cl)cc1
CCOc1ccc(CSC(=N)N)cc1Cl
CCn1cc(C(=O)Nc2cccc(NC(C)=O)c2)c2cc(OC)c(OC)cc2c1=O
O=C(CNC(=O)c1ccc(Br)cc1)c1ccc(Br)cc1
COc1ccc(NC(=O)c2c(NC(=O)CCC(=O)O)sc3c2CCCCC3)cc1
Cc1ccc(NC(=O)CSc2nc(O)cc(=O)n2C)cc1
CCOc1ccc(S(=O)(=O)NCC2CCCO2)cc1NC(=O)c1ccccc1F (stereo unspecified)

Reference: PubChem BioAssay AID485297 (National Center for Advancing Translational Sciences (NCATS), 2010)
